# Assay results taken from the supplement of paper PMC4604168 (melanoma cell lines).
# This is one part of the list. Most values come without repeats; read them as rough.
# Tests used:
# Assay in all cases: cell count relative to DMSO control; melanoma cells; higher = more viable cells
# Conditions in all cases: library dose: low library concentration; 72 h
# MZ2-MEL = tested on: MZ2-MEL
# MeWo = tested on: MeWo
# RPMI7951 = tested on: RPMI7951
# RVH-421 = tested on: RVH-421
# SkMel28 = tested on: SkMel28
# SkMel30 = tested on: SkMel30
# SkMel5 = tested on: SkMel5
# UACC257 = tested on: UACC257
# UACC62 = tested on: UACC62
# 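Note: cell number obtained by counting DAPI-stained nuclei in high-throughput microscope images with image analysis software, screen run in 1,536-well plates.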
SMILES,cell count (MZ2-MEL) [%],cell count (MeWo) [%],cell count (RPMI7951) [%],cell count (RVH-421) [%],cell count (SkMel28) [%],cell count (SkMel30) [%],cell count (SkMel5) [%],cell count (UACC257) [%],cell count (UACC62) [%]
"Nc1cccc2c1CN(C1CCC(=O)NC1=O)C2=O (stereo not drawn) [lenalidomide] + O=S(=O)(c1ccccc1)N(CC(F)(F)F)c1ccc(C(O)(C(F)(F)F)C(F)(F)F)cc1 [T0901317] (first compound 1 µM, partner dose 1.4 µM)",94.9,87.8,90,9.79,82.5,82,72.7,81.7,84.6
"Cn1c(Nc2ccc(C(F)(F)F)cc2)nc2cc(Oc3ccnc(-c4ncc(C(F)(F)F)[nH]4)c3)ccc21 + COc1ccc(-c2ccc3c(N4CCOCC4)nc(N4C[C@@H](C)O[C@@H](C)C4)nc3n2)cc1CO [KU0063794] (first compound 0.08 µM, partner dose 0.02 µM)",71.8,69.3,59.1,78.5,61.5,56.3,70.4,36.4,60.8
"COCC[n+]1c2c(n(Cc3cnccn3)c1C)C(=O)c1ccccc1C2=O + Cc1cc([N+](=O)[O-])ccc1NS(=O)(=O)c1cc(Cl)ccc1Cl [FH535] (first compound 0.0004 µM, partner dose 1 µM)",51.9,87.6,95.7,104,87.9,81.4,77.3,74,78.6
"Cn1c(Nc2ccc(C(F)(F)F)cc2)nc2cc(Oc3ccnc(-c4ncc(C(F)(F)F)[nH]4)c3)ccc21 + CCCCCCCCCCCC1=C(O)C(=O)C=C(O)C1=O [Embelin] (first compound 0.08 µM, partner dose 1.2 µM)",83.7,78.9,66.1,66.8,47.6,56.9,78.8,61.1,54.4
"O=C(CCCCCCC(=O)Nc1ccccc1)NO [vorinostat] + Cc1cc([N+](=O)[O-])ccc1NS(=O)(=O)c1cc(Cl)ccc1Cl [FH535] (first compound 0.08 µM, partner dose 1 µM)",95.1,95.4,119,72.7,69.1,89.2,77.7,77.5,74
"O=C(CCCCCCC(=O)Nc1ccccc1)NO [vorinostat] + N#Cc1c(O)c2c(-c3ccc(-c4ccccc4O)cc3)csc2[nH]c1=O [A769662] (first compound 0.08 µM, partner dose 2 µM)",97.4,97.4,80.8,100,80.9,108,95.1,86.1,76.6
"C#Cc1cccc(Nc2ncnc3cc(OCCOC)c(OCCOC)cc23)c1 [erlotinib] + N#Cc1c(O)c2c(-c3ccc(-c4ccccc4O)cc3)csc2[nH]c1=O [A769662] (first compound 0.8 µM, partner dose 2 µM)",93.9,93.4,109,117,91.7,77.2,105,80.9,83.7
"COCC[n+]1c2c(n(Cc3cnccn3)c1C)C(=O)c1ccccc1C2=O + c1cc(-c2cnn3cc(-c4ccc(OCCN5CCCCC5)cc4)cnc23)ccn1 [Dorsomorphin] (first compound 0.0004 µM, partner dose 0.4 µM)",41.5,73.4,61.3,127,81.1,104,54.3,73.9,75.6
"C#Cc1cccc(Nc2ncnc3cc(OCCOC)c(OCCOC)cc23)c1 [erlotinib] + COc1cc2ncnc(Nc3ccc(Oc4ccccc4)cc3)c2cc1OC [SrcI1] (first compound 0.8 µM, partner dose 2 µM)",80.6,87.9,113,121,84.4,88.3,78.7,79.2,97.3
"Cn1c(Nc2ccc(C(F)(F)F)cc2)nc2cc(Oc3ccnc(-c4ncc(C(F)(F)F)[nH]4)c3)ccc21 + Cn1cc(/C=C2\C(=O)Nc3cccnc32)c2ccccc21 [GW441756] (first compound 0.08 µM, partner dose 0.4 µM)",72.9,73.8,56.1,63.4,66.4,43.4,70.5,43.9,55.6
"C#Cc1cccc(Nc2ncnc3cc(OCCOC)c(OCCOC)cc23)c1 [erlotinib] + O=C(O)C(=O)Nc1sc2c(c1C(=O)O)CCNC2 [TCS401] (first compound 0.8 µM, partner dose 1.66667 µM)",90.2,103,93.9,89.7,89.8,93.1,88.2,81.5,108
"C#Cc1cccc(Nc2ncnc3cc(OCCOC)c(OCCOC)cc23)c1 [erlotinib] + Oc1cc(-c2nc(-c3ccccc3)[nH]c2-c2ccncc2)ccc1Cl [L779450] (first compound 0.8 µM, partner dose 0.2 µM)",73.7,97.8,98.3,84.7,86.2,94.7,103,88.1,86.9
"C#Cc1cccc(Nc2ncnc3cc(OCCOC)c(OCCOC)cc23)c1 [erlotinib] + COc1ccc2c(c1)CCC1C2CCC2(C)C(NCCCCCCN3C(=O)C=CC3=O)CCC12 [U73122] (first compound 0.8 µM, partner dose 0.4 µM)",93.4,95.5,92.7,88.3,80.5,93.7,106,83.5,78.5
"C#Cc1cccc(Nc2ncnc3cc(OCCOC)c(OCCOC)cc23)c1 [erlotinib] + CC(C)CCN1c2nc(Nc3cc(F)c(O)c(F)c3)ncc2N(C)C(=O)C1C [BID1870] (first compound 0.8 µM, partner dose 0.2 µM)",96.2,90.9,103,124,92.7,88.4,96.1,87.5,69.6
"COCC[n+]1c2c(n(Cc3cnccn3)c1C)C(=O)c1ccccc1C2=O + COc1ccc(COc2ccc(Cc3cnc(N)nc3N)cc2OC)cc1 [GW2580] (first compound 0.0004 µM, partner dose 1 µM)",80.3,90.5,104,106,96.7,87.1,74.8,83.3,106
"COCC[n+]1c2c(n(Cc3cnccn3)c1C)C(=O)c1ccccc1C2=O + CC(C)CCN1c2nc(Nc3cc(F)c(O)c(F)c3)ncc2N(C)C(=O)C1C [BID1870] (first compound 0.0004 µM, partner dose 0.2 µM)",51.8,82.8,97.6,95.6,88.5,89.9,85.9,97.4,86.2
"Nc1cccc2c1CN(C1CCC(=O)NC1=O)C2=O (stereo not drawn) [lenalidomide] + N#Cc1c(O)c2c(-c3ccc(-c4ccccc4O)cc3)csc2[nH]c1=O [A769662] (first compound 1 µM, partner dose 2 µM)",97.7,98.2,101,111,82.8,97.4,94.4,92.1,108
"O=C(CCCCCCC(=O)Nc1ccccc1)NO [vorinostat] + CC(C)CCN1c2nc(Nc3cc(F)c(O)c(F)c3)ncc2N(C)C(=O)C1C [BID1870] (first compound 0.08 µM, partner dose 0.2 µM)",105,82.2,103,125,71.9,103,82.3,78.8,76.5
"Cn1c(Nc2ccc(C(F)(F)F)cc2)nc2cc(Oc3ccnc(-c4ncc(C(F)(F)F)[nH]4)c3)ccc21 + Cc1cc([N+](=O)[O-])ccc1NS(=O)(=O)c1cc(Cl)ccc1Cl [FH535] (first compound 0.08 µM, partner dose 1 µM)",64.2,58.9,59.8,62,68,57.5,72,34.2,45
"O=C(CCCCCCC(=O)Nc1ccccc1)NO [vorinostat] + Oc1cc(-c2nc(-c3ccccc3)[nH]c2-c2ccncc2)ccc1Cl [L779450] (first compound 0.08 µM, partner dose 0.2 µM)",81.8,104,117,89.4,76.1,86.8,92.8,102,75.3
"Nc1cccc2c1CN(C1CCC(=O)NC1=O)C2=O (stereo not drawn) [lenalidomide] + CCCCCCCCCCCC1=C(O)C(=O)C=C(O)C1=O [Embelin] (first compound 1 µM, partner dose 1.2 µM)",105,115,119,103,109,109,108,102,107
"Cn1c(Nc2ccc(C(F)(F)F)cc2)nc2cc(Oc3ccnc(-c4ncc(C(F)(F)F)[nH]4)c3)ccc21 + COc1cc2ncnc(Nc3ccc(Oc4ccccc4)cc3)c2cc1OC [SrcI1] (first compound 0.08 µM, partner dose 2 µM)",86.5,73.7,68.1,85.8,56.4,68.3,77.1,42.8,51.4
